Measured values: the RNAGym collection of RNA variant scans (doi:10.1073/pnas.2313332121)
Variants at the background level are over-represented here.

B1: TPR 5TU (parent)
chain: GGAUCUUCUCGAUCUAACAAAAAAGACAAAUCUGCCACAAAGCUUGAGAGCAUCUUCGGAUGCAGAGGCGGCAGCCUUCGGUGGCGCGAUAGCGCCAACGUUCUCAACUAUGACACGCAAAACGCGUGCUCCGUUGAAUGGAGUUUAUCAUG

Variants of: B1
Assay: polymerase ribozyme fitness, log enrichment relative to wild type (log ratio); higher = more active; in vitro selection for triplet polymerase activity
Summary of the method: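 Fitness measures genotype enrichment against wild-type enrichment on a logarithmic scale, with inverse-variance-weighted averaging of replicates. The logarithm is base 2, and genotypes were kept only with ≥10 input reads and ≥1 read per output in Illumina sequencing. The sequenced libraries came from one triplicate in vitro selection round, including frozen incubation at −7 °C, of PCR-built, transcribed mutant libraries of each subunit of a heterodimeric triplet polymerase ribozyme.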

Row | Variant | polymerase ribozyme fitness (log ratio)
1 | G94A U148C | -2.75
2 | G94C A97G A121U A122U | -0.691
3 | G94C A97U A150G | -1.52
4 | G94C A97U G136C | -3.35
5 | G94C A107C C116U C123G | ≤ -4.2
6 | G94C A107U C108A U127G | ≤ -4.2
7 | G94C A122U G133U G140C G152U | ≤ -4.2
8 | G94C C108U U130G | ≤ -4.2
9 | G94C C149G | ≤ -4.2
10 | G94C G126A | 0.311
11 | G94C U111C U135A A138U | ≤ -4.2
12 | G94C U134A G140C U146C | ≤ -4.2
13 | G94C U145G | -0.944
14 | G94U C108A A120U C123G | ≤ -4.2
15 | G94U G100U U104G U109C A147C | ≤ -4.2
16 | C95A | 0.441
17 | C95A A121U U139G G141A | ≤ -4.2
18 | C95A C96A | -2.33
19 | C95A C96A C123U G140U | ≤ -4.2
20 | C95A C99A C123G | -1.33
21 | C95A C99A G100C C129G | ≤ -4.2
22 | C95A C108G | ≤ -4.2
23 | C95A G141C | 0.744
24 | C95A U101C | 0.62

Row | Variant | polymerase ribozyme fitness (log ratio)
25 | C95G A97C | -0.47
26 | C95G G141A A142C C149U | ≤ -4.2
27 | C95U | -0.031
28 | C95U A98C G133U U139C U144C U151A | ≤ -4.2
29 | C95U C99G U102G U135G | ≤ -4.2
30 | C95U C99G U104G A110G C116A A142U | ≤ -4.2
31 | C95U C123A C125U | -0.165
32 | C95U C131G | -3.24
33 | C95U G112A C125U U146G C149G | ≤ -4.2
34 | C95U U145A | 0.0594
35 | C96A | -0.52
36 | C96A C105U A122U | 0.463
37 | C96A C118U G133U A147C | ≤ -4.2
38 | C96A G124A | -0.328
39 | C96A G128U | -2.45
40 | C96A G143C | -2.38
41 | C96A U130C | 0.457
42 | C96G | -0.496
43 | C96G A97G | -2.61
44 | C96G A97U | -1.83
45 | C96G A150U | 0.451
46 | C96G C99G G143A U148G | ≤ -4.2
47 | C96G C105U C116G A119U C132U | -1.57
48 | C96G C108A C123G | -3.69

Row | Variant | polymerase ribozyme fitness (log ratio)
49 | C96G G112C | -3.95
50 | C96G U134G | -1.64
51 | C96G U144C | -0.123
52 | C96U | -0.258
53 | C96U A97G G124A C149A | -4.08
54 | C96U A107G G117A | ≤ -4.2
55 | C96U A113U G124U | -2.41
56 | C96U A115G G136U A142G | -3.69
57 | C96U A137U | -3.84
58 | C96U C105A | -0.493
59 | C96U C116U G140C U144G | -4.04
60 | C96U C131U | 0.576
61 | C96U G117U A120U C149A | ≤ -4.2
62 | C96U G126A | 0.845
63 | C96U G133A | -3.92
64 | C96U G133A G143U A147G | ≤ -4.2
65 | C96U G141C | -0.372
66 | C96U U109C | -3.67
67 | C96U U134A U135G | ≤ -4.2
68 | C96U U144G | -0.238
69 | A97C C103G | ≤ -4.2
70 | A97G A107G | -4.13
71 | A97G A150C | -2.96
72 | A97G C105U A107U U130A U139G | ≤ -4.2

Row | Variant | polymerase ribozyme fitness (log ratio)
73 | A97U C125A | -0.436
74 | A97U G140U | -3.87
75 | A97U U102A C123U U148G | ≤ -4.2
76 | A97U U109G | -1.62
77 | A97U U139A U144A | -4.08
78 | A97U U139C G140C U145G | -3.85
79 | A98G A115G U135G | -3.81
80 | A98G A120G C125A U144A | -1.16
81 | A98G G124C | -0.819
82 | A98U A110C | ≤ -4.2
83 | A98U C129U | 0.463
84 | A98U G141U | 1.39
85 | A98U U101G C129U U139C | ≤ -4.2
86 | C99A C116U | -0.602
87 | C99G A107U A137G G141A | ≤ -4.2
88 | C99G C103A G124U G126A G141C | ≤ -4.2
89 | C99G G126U | -0.93
90 | C99U A107C G133U | ≤ -4.2
91 | C99U A150G | -0.552
92 | C99U C125U | 0.0952
93 | C99U U102A | -1.33
94 | G100C U104A A106U | ≤ -4.2
95 | G100U C131U | ≤ -4.2
96 | G100U U144G | -3.5

Row | Variant | polymerase ribozyme fitness (log ratio)
97 | U101A A106C A147G | -3.14
98 | U101G A106C A113C A122G | ≤ -4.2
99 | U101G A107U | -3.84
100 | U101G A107U C114G U144A | ≤ -4.2
101 | U101G C118A G126A | -3.59
102 | U101G G136C | -2.44
103 | U101G U102G C125G C129U U144A | ≤ -4.2
104 | U102G A121C | -2.85
105 | U102G C103A C132U | ≤ -4.2
106 | U102G C103G A137G U144C U146G A150G | ≤ -4.2
107 | U102G G126A U134C U135G U145G | ≤ -4.2
108 | U102G U148A | -3.81
109 | C103A A115C | -2.54
110 | C103A A115U | -3.09
111 | C103A U144G | -2.84
112 | C103G A107G A142G | ≤ -4.2
113 | C103G A119C | -1.49
114 | C103G A120U | -1.5
115 | C103G U127A A137G | ≤ -4.2
116 | C103G U151A | ≤ -4.2
117 | U104A | 0.0691
118 | U104A C105G | ≤ -4.2
119 | U104C | 0.352
120 | U104G | -0.299

Row | Variant | polymerase ribozyme fitness (log ratio)
121 | U104G C125A U148A | ≤ -4.2
122 | C105A A107C | ≤ -4.2
123 | C105G A138G | -3.88
124 | C105G C118A | -3.26
125 | C105U A120U G124A | 0.877
126 | A106C G152U | -2.57
127 | A106C U135G G143C | ≤ -4.2
128 | A106G C125A | -0.665
129 | A106G U127G A138G | ≤ -4.2
130 | A107C G141U U144G U146C | ≤ -4.2
131 | A107G C132U G133U | -3.52
132 | A107G U139C | ≤ -4.2
133 | A107G U148G | ≤ -4.2
134 | A107U U145A | -2.78
135 | C108A G143U U144G | ≤ -4.2
136 | C108G C125U | ≤ -4.2
137 | C108G C129A G140C U146C | ≤ -4.2
138 | A110G A115U G126C U139C | ≤ -4.2
139 | A110G C149U | ≤ -4.2
140 | A110U A150C | ≤ -4.2
141 | A110U C149U | ≤ -4.2
142 | A113U G124C | -3.17
143 | C114A U139G | -2.32
144 | C114G G133A | ≤ -4.2

Row | Variant | polymerase ribozyme fitness (log ratio)
145 | C114G G140C G141U | ≤ -4.2
146 | C114U A119U | -1.73
147 | C114U C125U | -3.33
148 | C114U G141C | -3.4
149 | A115C C123A | -1.17
150 | A115C U127C | -1.1
151 | A115G C116A U127G | ≤ -4.2
152 | A115G G124A A150G | -4
153 | A115U G126A | -3.35
154 | C116U U144A | -0.259
155 | G117A U127A | ≤ -4.2
156 | G117U A137G | -1.34
157 | G117U G143U | -2.57
158 | C118G A119G | 0.312
159 | C118G A122C G141C | -2.43
160 | C118U U146C | -1.27
161 | C118U U148A | -2.79
162 | C118U U148G | -3.62
163 | A119C G143A | -0.422
164 | A119U U127C | -2.06
165 | A120C C125G G133U | -3.85
166 | A120C G136U G140C | -4.19
167 | A121U U145C | 1.15
